Source: the supplement of paper PMC10126150
Values marked as one replicate rest on one cluster of the flow cell; about a third of the high ones do not repeat.

Tested on: ATP
Assay: switch fluorescence ratio, 500 uM ATP over buffer (Cy3 cluster intensity, sum of 5 cycles each) (fold (ratio)); higher = stronger signal-on switching upon ATP binding; sequences stand for … in TCGTCGGCAGCGTCAGATGTGTATAAGAGACAGTTTTTTTTTTTTTTTTTTTTTTTTT…TC
Conditions: aptamer strand: ATP DNA aptamer (quencher-CACCTGGGGGAGTATTGCGGAGGAAGG + anchor), 100 nM annealed; ATP concentration: 500 uM; one replicate
Outline: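 Per cluster, summed Cy3 intensity from the target cycles was divided by that from the buffer cycles to give the fluorescence ratio, then averaged per switch-domain sequence. Clusters outside 100-1000 RFU were excluded. The Cy3-labelled switching-strand clusters, on a modified Illumina MiSeq flow-cell, were annealed to 100 nM quencher-labelled ATP aptamer and imaged in selection buffer, then after 15 min with 500 uM ATP at 22 °C, for five cycles with NaOH stripping and re-annealing between them.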
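Further: ATP exposure 15 min at 22 °C before imaging.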

AAAGCGTACC
switch fluorescence ratio: 1.31

ATTGATCTTA
switch fluorescence ratio: 1

ATAGTGATAG
switch fluorescence ratio: 1.07

ACAGTTCGCC
switch fluorescence ratio: 0.938

AATGTTTAAC
switch fluorescence ratio: 1.01

TGGTTTCGCC
switch fluorescence ratio: 0.968

CCTAAAGTAA
switch fluorescence ratio: 1.27

CTAAGGTTCC
switch fluorescence ratio: 1.09

TCGGCCACGA
switch fluorescence ratio: 0.99

ACTATGCTGG
switch fluorescence ratio: 1

ATCTGTGACG
switch fluorescence ratio: 0.881

ATGTTCTGTG
switch fluorescence ratio: 0.973

ACGTATTTCT
switch fluorescence ratio: 1.11

TTCGGGGAC
switch fluorescence ratio: 1.06

CGCGTTAGGC
switch fluorescence ratio: 0.983

CGGTTAATTG
switch fluorescence ratio: 0.971

CCGGCGCCAT
switch fluorescence ratio: 2.92

AATTGAGTGA
switch fluorescence ratio: 0.956

GATGTGGGTC
switch fluorescence ratio: 0.961

TGGTTACGAG
switch fluorescence ratio: 1

TTAAGACAT
switch fluorescence ratio: 1.02

CTAGTTAGAT
switch fluorescence ratio: 0.954

GAATGAAATT
switch fluorescence ratio: 0.972

AAGTTTTCAC
switch fluorescence ratio: 1

TGAAGTTGGA
switch fluorescence ratio: 1.49

GGGTAGTGGC
switch fluorescence ratio: 1.08

GGGGGTGTCC
switch fluorescence ratio: 1.09

CACACTGGCT
switch fluorescence ratio: 1

CGTGATACCT
switch fluorescence ratio: 1.38

CCACGTAGCT
switch fluorescence ratio: 1.24

CTATCAGCTC
switch fluorescence ratio: 1.06

TCATCATGGG
switch fluorescence ratio: 1

AACGGGTGTT
switch fluorescence ratio: 1.01

GTTCACGGTT
switch fluorescence ratio: 1.04

TAATGTTCAT
switch fluorescence ratio: 1.02

ACGCACCCCT
switch fluorescence ratio: 1.53

CAATGAAAGA
switch fluorescence ratio: 0.981

TCTGCCAAGA
switch fluorescence ratio: 1.03

TGCTTCGGTT
switch fluorescence ratio: 1.06

CTTAATGTCC
switch fluorescence ratio: 1.01

TCCGTCATGT
switch fluorescence ratio: 1.16

CGTCCCATTG
switch fluorescence ratio: 1.15

CTTGGTGGCG
switch fluorescence ratio: 0.957

ACTAGCGCAA
switch fluorescence ratio: 5.22

AGGACGATTG
switch fluorescence ratio: 1.05

TTCTGTCAGT
switch fluorescence ratio: 1.01

ATTGCCCAAG
switch fluorescence ratio: 0.96

CCAATGGTAA
switch fluorescence ratio: 1.03

GCAGGTTAGT
switch fluorescence ratio: 0.978

AGGGCCCTAA
switch fluorescence ratio: 0.985

TTATCTCGGG
switch fluorescence ratio: 1

CGCGCTCAGG
switch fluorescence ratio: 1.27

TTCTAGATGG
switch fluorescence ratio: 0.999

TCTGGGGTGA
switch fluorescence ratio: 0.972

AACTCTG
switch fluorescence ratio: 1

GTACATGGTA
switch fluorescence ratio: 1.02

ATACCAAGGG
switch fluorescence ratio: 0.964

GAATGGTGCT
switch fluorescence ratio: 1.03

TCTCTATGTC
switch fluorescence ratio: 1.02

GATGGCTAAT
switch fluorescence ratio: 0.976

TGATTGTAC
switch fluorescence ratio: 1.08

CCGACTTAGG
switch fluorescence ratio: 1.05

GCTGGGCTGG
switch fluorescence ratio: 1.01

AGTTGATTTA
switch fluorescence ratio: 0.97

ATAACGGCAC
switch fluorescence ratio: 2.06

GTGGGGCAAT
switch fluorescence ratio: 1.19

GGTTCGCGAC
switch fluorescence ratio: 1.04

CGATTATGTG
switch fluorescence ratio: 0.973

CCTACTGACC
switch fluorescence ratio: 1.39

TTTATTTGTG
switch fluorescence ratio: 1.03

GGTCATCGGT
switch fluorescence ratio: 0.912

GGGACCACTC
switch fluorescence ratio: 0.987

CTTGCTGCGC
switch fluorescence ratio: 1.31

AACGATGACT
switch fluorescence ratio: 1.11

GCGTTTTGCT
switch fluorescence ratio: 1.02

GTATCGTGGA
switch fluorescence ratio: 0.99

TCTGAGCTGC
switch fluorescence ratio: 0.915

TCGTATGTAC
switch fluorescence ratio: 1.09

CTCGGGATGA
switch fluorescence ratio: 1.07

TCGTGGTGAC
switch fluorescence ratio: 0.955

TTCTTGGGG
switch fluorescence ratio: 1.01

ACTGAAGTGG
switch fluorescence ratio: 1.05

GTATGTAGCC
switch fluorescence ratio: 1.03

TCGTAAGCAG
switch fluorescence ratio: 1.02

CTTAGAACTC
switch fluorescence ratio: 1.01

TCATCAATGA
switch fluorescence ratio: 1.02

CGCCTATATC
switch fluorescence ratio: 1.41

AGCGGTCGGG
switch fluorescence ratio: 0.97

CTGGTATGTA
switch fluorescence ratio: 1.01

ATTAGGTCAA
switch fluorescence ratio: 0.983

GGGTCATGC
switch fluorescence ratio: 1.01

ACTGGGGCTT
switch fluorescence ratio: 1.06

CAAGGTTCAA
switch fluorescence ratio: 1.02

GAGTGGATCG
switch fluorescence ratio: 0.98

ATGAGTTTGG
switch fluorescence ratio: 0.939

TCATTGTGTA
switch fluorescence ratio: 0.959

GGGACTTATC
switch fluorescence ratio: 1.01

AGGGGCATAT
switch fluorescence ratio: 1.07

CTCTTTTAAT
switch fluorescence ratio: 0.971

TTGGTTCTTA
switch fluorescence ratio: 0.943

CGGCGTGGAG
switch fluorescence ratio: 1.05

AGGTGCGAT
switch fluorescence ratio: 1.06

GTCGATAGTT
switch fluorescence ratio: 1.01

CAGGTCCTTC
switch fluorescence ratio: 0.971

ACCGGAAATC
switch fluorescence ratio: 1.23

CTCCTTCTCA
switch fluorescence ratio: 1.01

CTGGGTGAAC
switch fluorescence ratio: 0.948

GCGCAGTTAG
switch fluorescence ratio: 1.08

TTCCCCCCAT
switch fluorescence ratio: 1.17

ACTGATATGT
switch fluorescence ratio: 1.02

AATGCCTGAG
switch fluorescence ratio: 1.12

GATATACCGT
switch fluorescence ratio: 1.03

AAGTCCACCA
switch fluorescence ratio: 1.04

CAAAATTTTG
switch fluorescence ratio: 0.991

AAGGAAGTTG
switch fluorescence ratio: 1.05

CAATGTTAAG
switch fluorescence ratio: 0.997

TGATTAATCG
switch fluorescence ratio: 0.987

GCCGCATAAT
switch fluorescence ratio: 1.78

CTGAGACCTC
switch fluorescence ratio: 1.01

CTCGTTTACT
switch fluorescence ratio: 1.07

AGATGTCGGG
switch fluorescence ratio: 1

TAGCGGCGGG
switch fluorescence ratio: 1

ACCACGCCAA
switch fluorescence ratio: 1.64

TTGGGCA
switch fluorescence ratio: 0.995

TCAGAGGCGC
switch fluorescence ratio: 0.985

TTATGTTGGA
switch fluorescence ratio: 1.01

CTTACTATTT
switch fluorescence ratio: 0.974

GCTAGAATCA
switch fluorescence ratio: 0.975

GTTTCTTGAG
switch fluorescence ratio: 0.983

ACATACGAAA
switch fluorescence ratio: 1.43

CGAGCATACC
switch fluorescence ratio: 2

TAACGAGAGG
switch fluorescence ratio: 0.961

CTTTATCGCA
switch fluorescence ratio: 0.965

CGCTAATAGT
switch fluorescence ratio: 1.99

ATAGGAGCGG
switch fluorescence ratio: 1.08

AGTGAATGCG
switch fluorescence ratio: 0.958

ATCGGATCGC
switch fluorescence ratio: 1.05

ATCCCAGAG
switch fluorescence ratio: 1.12

TTATGATAAG
switch fluorescence ratio: 0.977

ATGCCAGTTT
switch fluorescence ratio: 0.948

GCTTAACAAC
switch fluorescence ratio: 1.01

TTGAAACGGG
switch fluorescence ratio: 0.948

GTTCTCTAGG
switch fluorescence ratio: 1.02

GTAAAAAATA
switch fluorescence ratio: 1.03

TAACACGTTT
switch fluorescence ratio: 1.01

CGAAAAGCGA
switch fluorescence ratio: 1.03

CGAACGTGCG
switch fluorescence ratio: 1.02

GGTCTAGTTT
switch fluorescence ratio: 1.01

TGTAGCCAAA
switch fluorescence ratio: 1

AATAATTTCA
switch fluorescence ratio: 1.02

CTGATTGCGT
switch fluorescence ratio: 0.993

ATATGTTCTT
switch fluorescence ratio: 0.99

GTGGCGGTCG
switch fluorescence ratio: 0.947

CTCCGATAGC
switch fluorescence ratio: 6.3

CAGTCCTTGG
switch fluorescence ratio: 0.998

ATTTACAACG
switch fluorescence ratio: 0.969

GATCCTACCG
switch fluorescence ratio: 1.07
